Assays:
[1] = molecular target: T1, TPP-3760, B7H3 long, human (R&D Systems 2318-B3/CF) (human, UniProt Q5ZPR3 27-461); assay: ELISA, IgG captured on anti-human IgG Fc, antigen 37 ng/ml, anti-His HRP detection
T1 construct: Bought protein; also called B7H3 (RnDSystems, 2318-B3-050/CF); human B7H3
T1 sequence: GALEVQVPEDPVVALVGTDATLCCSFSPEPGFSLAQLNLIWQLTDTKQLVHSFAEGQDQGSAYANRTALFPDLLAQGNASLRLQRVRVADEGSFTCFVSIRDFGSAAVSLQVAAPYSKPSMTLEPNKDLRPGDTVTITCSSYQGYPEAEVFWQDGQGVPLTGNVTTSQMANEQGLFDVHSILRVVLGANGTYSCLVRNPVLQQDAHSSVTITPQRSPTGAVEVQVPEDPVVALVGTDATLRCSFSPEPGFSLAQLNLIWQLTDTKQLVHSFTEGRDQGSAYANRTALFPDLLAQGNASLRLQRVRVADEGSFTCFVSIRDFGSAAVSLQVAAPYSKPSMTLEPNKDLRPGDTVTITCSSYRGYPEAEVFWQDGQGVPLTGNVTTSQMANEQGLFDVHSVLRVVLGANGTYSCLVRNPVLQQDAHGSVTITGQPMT
Description: (§1) Binding of the antibodies to human B7H3 and to human B7H2 and B7H4 was characterized using ELISAs. […] After washing once with PSB, 0.05% Tween, the plate was blocked with 100% Smart Block (Candor) for one hour at 37° C. The antibody to be tested was then attached to the plate (2 μg/ml IgG in PBS, 0.05% Tween, 10% Smart Block; 1 hour, room temperature). […] After washing three times, the plate was incubated with Amplex Red for 30 minutes and then read.

[2] = molecular target: T2, human B7H2 (RnDSystems, 8206-B7) (human, UniProt O75144 19-258, limits assumed); assay: as above
T2 construct: Bought protein; His tag implied by anti-His detection
T2 sequence (looked up): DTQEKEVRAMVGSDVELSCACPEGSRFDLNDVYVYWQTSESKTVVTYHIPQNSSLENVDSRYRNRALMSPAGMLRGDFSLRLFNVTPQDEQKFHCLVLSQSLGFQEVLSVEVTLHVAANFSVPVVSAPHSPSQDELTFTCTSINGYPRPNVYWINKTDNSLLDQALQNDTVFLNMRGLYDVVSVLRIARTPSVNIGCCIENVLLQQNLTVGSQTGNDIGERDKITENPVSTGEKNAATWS
Description: as §1

[3] = molecular target: T3, human B7H4 (RnDSystems, 6576-B7) (human, UniProt Q7Z7D3 29-258, limits assumed); assay: as above
T3 construct: Bought protein; His tag implied by anti-His detection
T3 sequence (looked up): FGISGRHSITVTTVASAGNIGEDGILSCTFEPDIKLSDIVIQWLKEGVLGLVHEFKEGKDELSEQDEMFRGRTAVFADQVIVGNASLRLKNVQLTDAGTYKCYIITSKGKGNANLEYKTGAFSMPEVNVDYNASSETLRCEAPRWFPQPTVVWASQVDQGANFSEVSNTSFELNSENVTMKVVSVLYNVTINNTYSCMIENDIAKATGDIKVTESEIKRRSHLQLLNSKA
Description: as §1

[4] = molecular target: T4, human B7H3 on cancer cell lines (human, UniProt Q5ZPR3 29-534); assay: flow cytometry on A498 cells, dose response from 10 ug/mL (1:5 dilution), FITC secondary antibody
T4 construct: whole, on cells; Endogenous antigen on tumour cells; also called B7H3-positive cells (A498, MCF-7, Caki-2, U251, U87 MG, 786-O, NCI-H292)
T4 sequence (looked up): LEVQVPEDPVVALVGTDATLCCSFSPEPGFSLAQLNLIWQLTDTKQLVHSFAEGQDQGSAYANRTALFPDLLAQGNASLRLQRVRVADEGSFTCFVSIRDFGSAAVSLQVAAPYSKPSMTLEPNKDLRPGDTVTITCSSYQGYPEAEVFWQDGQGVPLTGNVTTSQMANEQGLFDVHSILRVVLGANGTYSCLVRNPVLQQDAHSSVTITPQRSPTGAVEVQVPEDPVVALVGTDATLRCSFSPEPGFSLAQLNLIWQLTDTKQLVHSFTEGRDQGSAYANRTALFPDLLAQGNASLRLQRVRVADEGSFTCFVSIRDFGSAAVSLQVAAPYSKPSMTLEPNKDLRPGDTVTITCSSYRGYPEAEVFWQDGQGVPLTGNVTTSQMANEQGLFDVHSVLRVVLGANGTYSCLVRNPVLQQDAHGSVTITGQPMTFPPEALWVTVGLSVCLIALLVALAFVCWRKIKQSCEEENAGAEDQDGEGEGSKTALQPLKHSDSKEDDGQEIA
Description: A dose response curve (1:5 dilution) was generated. Following incubation, 200 μL of ice-cold FACS buffer were pipetted in and the cell suspension was centrifuged at 4° C., 400 g for 4 min. The cell pellet was washed with 300 μL of ice-cold FACS buffer prior to resuspending the pellet obtained in 100 μL of FACS buffer and again incubating for 30 min on ice with secondary antibody (monoclonal anti-kappa light chains FITC antibody, Sigma, No. SAB4700605) in a 1:10 dilution. Subsequently, the cells were washed with ice-cold FACS buffer and adjusted to a cell concentration of 0.5×10⁶ cells/mL before carrying out the flow cytometry using a Guava flow cytometer (Millipore). Propidium iodide (final concentration 1 μg/mL) was used for the live staining. With the aid of the background-corrected geometric mean fluorescence values, the IC50 value of the antibody to be investigated was determined.

Quotient signal (B7)/signal (buffer) [1]: 111 | Quotient signal (B7)/signal (buffer) [2]: < 1.5 | Quotient signal (B7)/signal (buffer) [3]: < 1.5 | EC50 [4]: 310 pM
B1: TPP-6497 (antibody, human IgG1, lambda)
heavy: EVQLLESGGGLVQPGGSLRLSCAASGFTFRSYAMSWVRQAPGKGLEWVSSVSGSGGSALYADSVKGRFTISRDNSKNTLYLQMNSLRAEDTAVYYCTRLTGTSFDYWGQGTLVTVSS[left out - human IgG1 constant region]
light: QSVLTQPPSASGTPGQRVTISCSGSSSNIGSNPVNWYQQLPGTAPKLLIYGNSNRPSGVPDRFSGSKSGTSASLAISGLRSEDEADYYCQSFDSSLKKVFGGGTKLTVLGQPKAAPSVTLFPPSSEELQANKATLVCLISDFYPGAVTVAWKADSSPVKAGVETTTPSKQSNNKYAASSYLSLTPEQWKSHRSYSCQVTHEGSTVEKTVAPTECS
